Some of the results follow. Many values rest on one well or one pass, so single values are uncertain.
Legend:
Assay in all cases: cell count relative to DMSO control; melanoma cells; higher = more viable cells
Conditions in all cases: library dose: standard library concentration; 72 h
A101D = system: A101D
A2058 = system: A2058
A375 = system: A375
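Note: cells treated in 1,536-well plates, then fixed and DAPI-stained, with nuclei counted from automated high-throughput microscope images.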

Structure (SMILES) | cell count (A101D) [%] | cell count (A2058) [%] | cell count (A375) [%]
CCN(CC)CCNC(=O)c1c(C)[nH]c(/C=C2\C(=O)Nc3ccc(F)cc32)c1C [sunitinib] + CO[C@H]1C[C@@H]2CC[C@@H](C)[C@@](O)(O2)C(=O)C(=O)N2CCCC[C@H]2C(=O)O[C@H]([C@H](C)C[C@@H]2CC[C@@H](OCCO)[C@H](OC)C2)CC(=O)[C@H](C)/C=C(\C)[C@@H](O)[C@@H](OC)C(=O)[C@H](C)C[C@H](C)/C=C/C=C/C=C/1C [everolimus] (first compound 2 µM, partner dose 0.1 µM) | 59.1 | 33.5 | 77.2
C[C@]1(O)C[C@@H](c2nc(-c3ccc4ccc(-c5ccccc5)nc4c3)c3c(N)nccn32)C1 + O=C(O)[C@@H]1[O][Sb](=[O])([O][Sb]2(=[O])[O][C@H]([C@H](O)CO)[C@H](O)[C@H](C(=O)O)[O]2)[O][C@H]([C@H](O)CO)[C@@H]1O [stibogluconate] (first compound 2 µM, partner dose 10 µM) | 97.6 | 97 | 82.3
COc1cc([C@@H]2c3cc4c(cc3[C@@H](O[C@@H]3O[C@@H]5CO[C@@H](C)O[C@H]5[C@H](O)[C@H]3O)[C@H]3COC(=O)[C@H]23)OCO4)cc(OC)c1O [etoposide] + COc1ccc(Cl)c(Nc2nc3ccccc3nc2NS(=O)(=O)c2cccc(NC(=O)C(C)(C)N)c2)c1 [XL147] (first compound 0.1 µM, partner dose 4 µM) | 86.1 | 69.6 | 77.9
COc1cc([C@@H]2c3cc4c(cc3[C@@H](O[C@@H]3O[C@@H]5CO[C@@H](C)O[C@H]5[C@H](O)[C@H]3O)[C@H]3COC(=O)[C@H]23)OCO4)cc(OC)c1O [etoposide] + Nc1ccn([C@@H]2O[C@H](CO)[C@@H](O)C2(F)F)c(=O)n1 [gemcitabine] (first compound 0.1 µM, partner dose 0.002 µM) | 64.2 | 46 | 69.9
C[C@]1(O)C[C@@H](c2nc(-c3ccc4ccc(-c5ccccc5)nc4c3)c3c(N)nccn32)C1 + COc1cc2c(Oc3ccc4[nH]c(C)cc4c3F)ncnc2cc1OCCCN1CCCC1 [cediranib] (first compound 2 µM, partner dose 2 µM) | 115 | 105 | 111
CCN(CC)CCNC(=O)c1c(C)[nH]c(/C=C2\C(=O)Nc3ccc(F)cc32)c1C [sunitinib] + Nc1ncn([C@H]2C[C@H](O)[C@@H](CO)O2)c(=O)n1 [decitabine] (first compound 2 µM, partner dose 0.5 µM) | 63.2 | 85 | 102
COc1cc([C@@H]2c3cc4c(cc3[C@@H](O[C@@H]3O[C@@H]5CO[C@@H](C)O[C@H]5[C@H](O)[C@H]3O)[C@H]3COC(=O)[C@H]23)OCO4)cc(OC)c1O [etoposide] + CS(=O)(=O)c1ccc(C(=O)Nc2ccc(Cl)c(-c3ccccn3)c2)c(Cl)c1 [vismodegib] (first compound 0.1 µM, partner dose 5 µM) | 107 | 74.8 | 83.1
COc1cc([C@@H]2c3cc4c(cc3[C@@H](O[C@@H]3O[C@@H]5CO[C@@H](C)O[C@H]5[C@H](O)[C@H]3O)[C@H]3COC(=O)[C@H]23)OCO4)cc(OC)c1O [etoposide] + NCC(=O)Nc1ccc(-n2nc(C(F)(F)F)cc2-c2ccc3c(ccc4ccccc43)c2)cc1 [OSU03012] (first compound 0.1 µM, partner dose 5 µM) | 87.5 | 96.3 | 62.2
CCN(CC)CCNC(=O)c1c(C)[nH]c(/C=C2\C(=O)Nc3ccc(F)cc32)c1C [sunitinib] + Cc1nc(Nc2ncc(C(=O)Nc3c(C)cccc3Cl)s2)cc(N2CCN(CCO)CC2)n1 [dasatanib] (first compound 2 µM, partner dose 0.02 µM) | 61.4 | 49.9 | 70.9
CCN(CC)CCNC(=O)c1c(C)[nH]c(/C=C2\C(=O)Nc3ccc(F)cc32)c1C [sunitinib] + Cn1c(=O)n(-c2ccc(C(C)(C)C#N)cc2)c2c3cc(-c4cnc5ccccc5c4)ccc3ncc21 [NVP-BEZ235] (first compound 2 µM, partner dose 0.02 µM) | 75.1 | 43.2 | 81.8
COc1cc([C@@H]2c3cc4c(cc3[C@@H](O[C@@H]3O[C@@H]5CO[C@@H](C)O[C@H]5[C@H](O)[C@H]3O)[C@H]3COC(=O)[C@H]23)OCO4)cc(OC)c1O [etoposide] + Cc1nc(Nc2ncc(C(=O)Nc3c(C)cccc3Cl)s2)cc(N2CCN(CCO)CC2)n1 [dasatanib] (first compound 0.1 µM, partner dose 0.02 µM) | 60.3 | 57.4 | 67.2
COc1cc([C@@H]2c3cc4c(cc3[C@@H](O[C@@H]3O[C@@H]5CO[C@@H](C)O[C@H]5[C@H](O)[C@H]3O)[C@H]3COC(=O)[C@H]23)OCO4)cc(OC)c1O [etoposide] + C=CCNC1=C2C[C@@H](C)C[C@H](OC)[C@H](O)[C@@H](C)/C=C(\C)[C@H](OC(N)=O)[C@@H](OC)/C=C\C=C(/C)C(=O)NC(=CC1=O)C2=O [Tanespimycin] (first compound 0.1 µM, partner dose 0.01 µM) | 70.1 | 52.6 | 50.3
Cn1cnc2c(F)c(Nc3ccc(Br)cc3Cl)c(C(=O)NOCCO)cc21 [selumetinib] + Cn1cncc1[C@@](N)(c1ccc(Cl)cc1)c1ccc2c(c1)c(-c1cccc(Cl)c1)cc(=O)n2C [tipifarnib] (first compound 0.075 µM, partner dose 0.05 µM) | 65.2 | 88.3 | 69.2
COc1cc([C@@H]2c3cc4c(cc3[C@@H](O[C@@H]3O[C@@H]5CO[C@@H](C)O[C@H]5[C@H](O)[C@H]3O)[C@H]3COC(=O)[C@H]23)OCO4)cc(OC)c1O [etoposide] + Cn1cnc2c(F)c(Nc3ccc(Br)cc3Cl)c(C(=O)NOCCO)cc21 [selumetinib] (first compound 0.1 µM, partner dose 0.075 µM) | 71.7 | 86.8 | 83.3
C[C@]1(O)C[C@@H](c2nc(-c3ccc4ccc(-c5ccccc5)nc4c3)c3c(N)nccn32)C1 + COc1ccc(-c2ccc3c(N4CCOCC4)nc(N4C[C@@H](C)O[C@@H](C)C4)nc3n2)cc1CO [KU0063794] (first compound 2 µM, partner dose 0.1 µM) | 87.5 | 106 | 90.4
Cn1cnc2c(F)c(Nc3ccc(Br)cc3Cl)c(C(=O)NOCCO)cc21 [selumetinib] + CCCS(=O)(=O)Nc1ccc(F)c(C(=O)c2c[nH]c3ncc(Cl)cc23)c1F [PLX4720] (first compound 0.075 µM, partner dose 0.4 µM) | 70.5 | 100 | 85.5
Cn1cnc2c(F)c(Nc3ccc(Br)cc3Cl)c(C(=O)NOCCO)cc21 [selumetinib] + C[C@]1(c2nc3c(C(N)=O)cccc3[nH]2)CCCN1 [Veliparib] (first compound 0.075 µM, partner dose 7 µM) | 90.9 | 78.9 | 71.1
COc1cc([C@@H]2c3cc4c(cc3[C@@H](O[C@@H]3O[C@@H]5CO[C@@H](C)O[C@H]5[C@H](O)[C@H]3O)[C@H]3COC(=O)[C@H]23)OCO4)cc(OC)c1O [etoposide] + C=CCn1c(=O)c2cnc(Nc3ccc(N4CCN(C)CC4)cc3)nc2n1-c1cccc(C(C)(C)O)n1 [MK1775] (first compound 0.1 µM, partner dose 0.1 µM) | 66.6 | 46.9 | 68.2
CCN(CC)CCNC(=O)c1c(C)[nH]c(/C=C2\C(=O)Nc3ccc(F)cc32)c1C [sunitinib] + NC(=O)Nc1cc(-c2cccc(F)c2)sc1C(=O)N[C@H]1CCCNC1 [AZD7762] (first compound 2 µM, partner dose 0.1 µM) | 58.5 | 49.2 | 54.1
Cn1cnc2c(F)c(Nc3ccc(Br)cc3Cl)c(C(=O)NOCCO)cc21 [selumetinib] + COCC[n+]1c2c(n(Cc3cnccn3)c1C)C(=O)c1ccccc1C2=O [YM155] (first compound 0.075 µM, partner dose 0.002 µM) | 75.7 | 20.6 | 84.6
C[C@]1(O)C[C@@H](c2nc(-c3ccc4ccc(-c5ccccc5)nc4c3)c3c(N)nccn32)C1 + Cc1cc(N2CCOCC2)cc2[nH]c(-c3c(NC[C@@H](O)c4cccc(Cl)c4)cc[nH]c3=O)nc12 [BMS536924] (first compound 2 µM, partner dose 1 µM) | 87.9 | 94.4 | 101
CCN(CC)CCNC(=O)c1c(C)[nH]c(/C=C2\C(=O)Nc3ccc(F)cc32)c1C [sunitinib] + O=C(Nc1ccccc1)c1cc([N+](=O)[O-])ccc1Cl [GW9662] (first compound 2 µM, partner dose 10 µM) | 57.8 | 83.8 | 108
C[C@]1(O)C[C@@H](c2nc(-c3ccc4ccc(-c5ccccc5)nc4c3)c3c(N)nccn32)C1 + OCCn1cc(-c2cnc3nnn(Cc4ccc5ncccc5c4)c3n2)cn1 [PF04217903] (first compound 2 µM, partner dose 5 µM) | 90 | 103 | 84.4
Cn1cnc2c(F)c(Nc3ccc(Br)cc3Cl)c(C(=O)NOCCO)cc21 [selumetinib] + NC1(c2ccc(-c3nc4ccn5c(=O)[nH]nc5c4cc3-c3ccccc3)cc2)CCC1 [MK2206] (first compound 0.075 µM, partner dose 2 µM) | 50.6 | 60.5 | 86.4

— the supplement of paper PMC4604168 (melanoma cell lines)
